The assay deals with Plasmodium falciparum. The assay can be described thus: Primary screen in NF54 nanoGlo assay, in single point, at 2uM, 72h; a lower Z score goes with more inhibition. It counts as functional, Erythrocyte. To be noted: timepoint 72 hour.

Where “and” joins values, the source holds several entries; their conditions need not be identical. Equal entries are not always repeated. Hit rate of the full screen: of about 150,000 compounds, about 540 (0.36%) showed an effect of 50% or more. The list shows a part of the results.

Experimental findings from ChEMBL document CHEMBL4888484, “Replenishing the malaria drug discovery pipeline: Screening and hit evaluation of the MMV Hit Generation Library 1 (HGL1) against asexual blood stage Plasmodium falciparum ,using a nano luciferase reporter read-out” (2022) are described below.

As to `CCc1nc(C)c(-c2c(-c3ccccc3)ncn2CCn2cc(C)nn2)[nH]1`, the “% Inhibition” value stood at 2% and the Z score was -0.29. For `Cc1nsc(NCc2ccc3c(c2)nc(C2CC2)n3C)n1` the same measures were 2% and -0.2.

As for `Nc1cc2cc(-c3cccc(C(=O)NCC4CCNCC4)c3)ccc2cn1`, the “% Inhibition” value is on record as -10% and the Z score is given as 1.48. Taken in the same sequence, the figures for `CCC(C)(C)C(=O)Nc1c(C)cc(C)cc1C` were -5% and 0.89. Taken in the same sequence, the figures for `Cc1nc(Cc2ccccc2F)[nH]c(=O)c1CCO` were 2% and -0.39. Taken in the same sequence, the figures for `Cc1ccc(C(=O)NCCn2c(C)cnc2C2CCOCC2)s1` were -1% and 0.13. As to `COC(=O)[C@H]1CC[C@@H](NC(=O)Nc2ccc(F)cc2OC(F)F)C1`, the “% Inhibition” value was -4% and the Z score was 0.67.

`Cn1c(=O)c(C(=O)N2CCN(C(c3ccccc3)c3ccccc3)CC2)cc2cccnc21`: the “% Inhibition” value was -16% and the Z score was found to be 2.04. For `OCc1csc(CNc2ccc3oc(C4CC4)nc3c2)n1` the same measures were -14% and 1.61.

In the case of `CCn1c(-c2cc(C)oc2C)nnc1N1CCCN(C(C)=O)CC1`, the “% Inhibition” value was -15% and the Z score was determined as 2.89.

Take `COc1ccc(C)cc1NC(=O)Cn1cnc2c(nc3n2CCCCC3)c1=O`: the “% Inhibition” value is listed as -3% and the Z score turned out to be 0.54. Taken in the same sequence, the figures for `O=C(NC[C@@H](CO)Cc1ccccn1)c1ccc(F)c(S(=O)(=O)N2CCC2)c1` were -14% and 2.48. As for `O=C(OCc1nnnn1-c1ccccc1)[C@@H]1Cc2cc(Cl)ccc2O1`, the “% Inhibition” value is reported as -1% and the Z score is 0.15. Taken in the same sequence, the figures for `COCCc1noc([C@H]2CCC(=O)N(Cc3ccccc3OC)C2)n1` were -4% and 0.67.

For `Cc1ccc([C@H](CCO)NC(=O)C2(N3CCCC3)CCCCC2)cc1`, the “% Inhibition” value is reported as -2% and the Z score came to 0.38. Taken in the same sequence, the figures for `O=C(CCCN1CCCC1=O)NCC[C@H]1CCCOC1` were -2% and 0.3. Taken in the same sequence, the figures for `CCOC(=O)CNC(=O)NCc1ccc2c(c1)CCN2C(=O)CC` were -7% and 1.29. Take `COc1c[nH]c(C(=O)N2CCO[C@H](c3ccccc3)C2)cc1=O`: the “% Inhibition” value (2 µM) is -17% and -1%.

As to `CCCS(=O)(=O)CC(=O)Nc1cccc(F)c1C`, the “% Inhibition” value is on record as -3% and the Z score is given as 0.42. Taken in the same sequence, the figures for `CCC(Nc1ncnc2c1cnn2C)C1CCCCO1` (stereo not drawn) were -6% and 1.1. Take `COc1cc(-c2ncc(C(=O)NCc3ccccn3)c(N(C)Cc3ccccc3)n2)cc(OC)c1OC`: the “% Inhibition” value is reported as -4% and the Z score is 0.51.

For the molecule `COc1ccc(Cl)cc1NC(=O)C[C@H]1CCCCN(C)C1=O`, the “% Inhibition” value is reported as -15% and the Z score is on record as 2.94.

On to `CCC(=O)N1CCCc2cc(S(=O)(=O)N3CCC(C(=O)Nc4cccc(Cl)c4)CC3)ccc21`, for which the “% Inhibition” value was found to be 3% and the Z score is recorded as -0.38. For `CCC1COC(C)CN1Cc1cc(C)on1` (stereo not drawn) the same measures were -2% and 0.25. As for `CCc1nc(C)c(CNC(=O)CC[C@@H]2CCCN3CCCC[C@H]23)s1`, the “% Inhibition” value is -5% and the Z score is given as 0.76. Consider `C[C@H](NCc1c(C(=O)N2CCCCCCC2)nc2ccc(Cl)cn12)c1ccc(F)cc1`, for which the “% Inhibition” value was determined as 12% and the Z score is on record as -1.58. Taken in the same sequence, the figures for `N#Cc1ccc(N2CCC[C@H](C(N)=O)C2)cn1` were -8% and 1.21.

Consider `CN1CCN(C(=O)CCc2cccnc2)CC1`, for which the “% Inhibition” value is on record as 1% and the Z score is -0.11.

Take `O=C(Nc1ccc2c(c1)CCC2)[C@H]1CNC[C@@H](C(=O)N2CCCC2)C1`: the “% Inhibition” value is listed as -4% and the Z score is 0.47. For the molecule `CCCCn1c(=O)[nH]c2c(C(=O)N3CCC(C)CC3)snc2c1=O`, the “% Inhibition” value is -14% and the Z score came out at 2.22. In the case of `CC(C)(Oc1ccc2c(c1)CCC2)C(=O)N[C@@H]1C[C@H]2OCC[C@@H]12`, the “% Inhibition” value was -19% and the Z score is on record as 2.11. For `Cc1ccc(C)n1-c1c(C(=O)NCc2ccc(N(C)C)cc2)sc2ncccc12` the same measures were -9% and 0.86. With `Cc1occc1C(=O)N1CCO[C@H](C(=O)NCCc2ccccn2)C1`, the “% Inhibition” value is on record as -12% and the Z score stood at 1.55.

Turning to `CCc1cc(NCC2(OC)CCOCC2)nc(CC)n1`, the “% Inhibition” value came to 5% and the Z score was -0.67. For `CCOC1CC(NC(=O)C2CC2C)C12CCC2` (stereo not drawn) the same measures were -11% and 1.55. As for `O=C(c1csc(=O)[nH]1)N1CCOCC12CCC2`, the “% Inhibition” value is given as -10% and the Z score was 1.39. For `Cc1ccc(-c2ccc(OC(=O)c3cnc(C)cn3)cc2)cc1` the same measures were -6% and 0.91.

For `CCCCc1noc(CNC(C)C(C)n2cccn2)n1` (stereo not drawn), the “% Inhibition” value was -4% and the Z score worked out at 0.68.

Regarding `C[C@H]1CS(=O)(=O)C[C@H]1NC(=O)c1ccc(C(F)(F)F)c(=O)[nH]1`, the “% Inhibition” value was -8% and the Z score stood at 1.07.

Take `Cc1cc(C(=O)N2CCN(c3cc(N4CCOCC4)ncn3)CC2)co1`: the “% Inhibition” value is reported as 4% and the Z score is listed as -0.44. On to `C=CCn1cc(CN2CCN(Cc3ncc[nH]3)[C@H]3CS(=O)(=O)C[C@H]32)cn1`, for which the “% Inhibition” value is -7% and the Z score came out at 1.

For `CC(C)N(C[C@H]1CCC(=O)N1)C(=O)c1cn(C(c2ccccc2)c2ccccc2)nn1`, the “% Inhibition” value is -1% and the Z score is 0.1. For `COc1nc(C)nc(NCc2c(C)noc2C)c1C` the same measures were 28% and -3.57. For `CCCc1cc(C(=O)N2CCC3(CC2)C(=O)N(C)c2ccccc23)no1` the same measures were -7% and 0.92. Taken in the same sequence, the figures for `CC(C)N1CCO[C@@H](CC(=O)NCc2csc(N)n2)C1` were -10% and 1.25. Consider `Cc1ccc(S(=O)(=O)N2CCC(c3nc(C(=O)N(C)C)c(C)o3)CC2)c(C)c1`, for which the “% Inhibition” value is reported as -1% and the Z score was 0.16. For `CC(C)c1nnsc1CN(C)C[C@H]1CCCCO1` the same measures were 3% and -0.54. With `CCOc1cnc(C(=O)N2CCC3(CC2)NC(=O)[C@H](C)O3)cn1`, the “% Inhibition” value stood at 3% and the Z score is reported as -0.61.

Turning to `CN(C)[C@H]1CCN(c2c(C#N)cccc2C#N)C1`, the “% Inhibition” value stood at 11% and the Z score is reported as -1.35. Taken in the same sequence, the figures for `Cc1nonc1Cc1ncnn1CC(F)(F)F` were -8% and 1.55. For `O=C(CC1CCCC1)NC1CCCCC1` the same measures were -6% and 0.79.

On to `Cc1nc(-c2cccs2)sc1C(=O)Nc1ccc2[nH]c(=O)[nH]c2c1`, for which the “% Inhibition” value was 13% and the Z score is given as -1.48. As for `Cc1cc(C)n(-c2ccc(CCNC(=O)[C@@H]3CCCO3)cc2)n1`, the “% Inhibition” value is given as -5% and the Z score is 0.61.

`CCC12OC3C(O)C4CC3C1C4C(=O)N2c1ccccc1OC` (stereo not drawn): the “% Inhibition” value is -24% and the Z score is listed as 2.22. Turning to `CN(c1ccc(F)cc1)S(=O)(=O)c1ccc2c(c1)C(=O)Nc1ccccc1O2`, the “% Inhibition” value is given as -16% and the Z score turned out to be 2.3. On to `Cc1cccc(C(C)NCCC(C)O)c1C` (stereo not drawn), for which the “% Inhibition” value came to 3% and the Z score is given as -0.3. `CC(C)c1ccc(O)c(C(=O)NCC(=O)NCC(F)(F)F)c1`: the “% Inhibition” value was -5% and the Z score was determined as 0.68. For `c1ccc2c3c(ccc2c1)OCN(c1ccc2c(c1)OCCO2)C3`, the “% Inhibition” value is given as -7% and the Z score stood at 0.97. For the molecule `Cc1ccc2c(c1)CCCN2C(=O)c1cnn(-c2ccncc2)c1C`, the “% Inhibition” value is -4% and the Z score stood at 0.55.

As to `CC[C@H](C)CN(CC(=O)N1CCN(c2ccc(-c3cccc(OC)c3)nn2)CC1)C(=O)c1cccc(F)c1`, the “% Inhibition” value was -3% and the Z score was 0.44. For `CCCCc1nc(CN2CCc3onc(-c4ccc5c(c4)OCO5)c3C2)c[nH]1` the same measures were -12% and 1.64.

Take `CC#CCN1CCC=C(CCNC(=O)C2CCCCC2)C1`: the “% Inhibition” value came to 8% and the Z score is on record as -1.5. `CCc1nc(C)c(C(=O)Nc2nnc(C(F)(F)F)[nH]2)o1`: the “% Inhibition” value is listed as 30% and the Z score is on record as -3.39. Taken in the same sequence, the figures for `N[C@@H](Cc1c[nH]cn1)c1ncnn1-c1ccc(C(F)(F)F)cc1` were -8% and 1.28.

`CCC(=O)Nc1ccc(C(=O)Cn2cc(Br)cn2)cc1`: the “% Inhibition” value is reported as -14% and the Z score is 2.93. Turning to `O=C(Nc1ccccc1)c1ccc(=O)n(CCC(=O)N2CCCCCC2)n1`, the “% Inhibition” value was -1% and the Z score was 0.09.

Consider `NC(=O)CN(CCCC1CCCCC1)CC(N)=O`, for which the “% Inhibition” value is listed as -5% and the Z score is on record as 0.91. For `COc1ccc(NC(=O)C(=O)Nc2c(C)n[nH]c2C)c(OC)c1`, the “% Inhibition” value is given as -15% and the Z score worked out at 1.5. For `COc1cc(C)sc1C(=O)NCCc1sc(N(C)C)nc1C` the same measures were -5% and 0.72. For `CCCc1nc(C(=O)NC(C)(C)c2nnc(N)s2)cs1` the same measures were -9% and 1.03.

For the molecule `CCCC[C@H]1C(=O)N(C)CCN1C(=O)CCc1scnc1C`, the “% Inhibition” value was -3% and the Z score is on record as 0.37. Taken in the same sequence, the figures for `Cc1cc(C(=O)Nc2nc3ccccc3[nH]2)c(C)o1` were 0% and -0.02.

For the molecule `CNc1nc(NCc2ccc3[nH]c(-c4ccccc4F)c(C)c3c2)ncc1F`, the “% Inhibition” value is -18% and the Z score is recorded as 2.15. On to `CCc1nc(NC(=O)CN(C)CC[C@H]2CCCCN2C)sc1C`, for which the “% Inhibition” value is -13% and the Z score turned out to be 1.37. `Cn1c(=O)c2c(ncn2CC(=O)N2Cc3cnnn3Cc3ccccc32)n(C)c1=O`: the “% Inhibition” value is listed as 13% and the Z score is reported as -1.65. On to `Cc1nn(C)c(C)c1S(=O)(=O)NC(=O)CCc1ccco1`, for which the “% Inhibition” value is given as 0% and the Z score was -0.04. For `O=C(CN1CCCCCC1)NC1CCCC1` the same measures were -9% and 1.47. As for `Cc1cc(OCC2CC2)n2nc(C)cc2n1`, the “% Inhibition” value was -12% and the Z score amounted to 1.52.

Take `Cc1ccc(C)c(C2CN(C(=O)CCC3CCNCC3)C(C)CO2)c1` (stereo not drawn): the “% Inhibition” value is on record as -7% and the Z score was 1.08. For `Cc1cccc(NC(=O)Cn2cnc3c(C(N)=O)nsc3c2=O)c1C` the same measures were -8% and 1.08. For `CCOc1ccnc(NCc2cnc(C)cn2)n1` the same measures were -10% and 0.96.

As for `O=C(NC1CCN(c2cnsn2)CC1)[C@@H]1CCCO1`, the “% Inhibition” value was -13% and the Z score is recorded as 1.69. Taken in the same sequence, the figures for `CCCCCc1nc(Cn2ccnn2)n(Cc2c(F)cccc2Cl)n1` were -3% and 0.5. Turning to `CCN(C(=O)CN1CCC[C@H]1c1nnc2ccccn12)c1ccccc1`, the “% Inhibition” value was -18% and the Z score is reported as 1.66. For `CC1CCCN(C(=O)c2ccnc(-c3ccccc3)c2N)C1C(=O)O` (stereo not drawn) the same measures were -6% and 0.84. Taken in the same sequence, the figures for `CC1CC(C)CN(C(=O)Cn2ccc(=O)n(C)c2=O)C1` (stereo not drawn) were -9% and 1.62. Taken in the same sequence, the figures for `OC[C@H]1CCCN(c2nc(-c3ccc(Oc4ccccc4)cc3)nc3ccccc23)C1` were -10% and 1.4.

What is called % Inhibition is the relative decrease from the control value, in per cent.
